From paper PMC5386471 come the findings set out here.

The chains behind the UniProt entries cited, without tags or fusion partners. Residues count along the entry.
UniProt P25942, residues 21-277: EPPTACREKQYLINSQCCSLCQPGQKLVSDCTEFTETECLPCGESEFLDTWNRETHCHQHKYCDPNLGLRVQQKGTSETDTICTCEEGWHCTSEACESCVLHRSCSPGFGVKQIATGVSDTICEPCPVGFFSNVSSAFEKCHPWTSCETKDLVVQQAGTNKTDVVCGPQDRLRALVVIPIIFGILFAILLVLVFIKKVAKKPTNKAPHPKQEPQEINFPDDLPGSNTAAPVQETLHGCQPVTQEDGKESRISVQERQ
UniProt Q96RJ3: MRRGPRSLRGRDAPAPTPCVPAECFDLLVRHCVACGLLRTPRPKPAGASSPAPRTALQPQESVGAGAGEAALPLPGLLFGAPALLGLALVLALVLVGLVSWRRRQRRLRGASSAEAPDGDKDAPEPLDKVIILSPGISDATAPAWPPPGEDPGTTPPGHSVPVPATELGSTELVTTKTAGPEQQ
UniProt Q02223: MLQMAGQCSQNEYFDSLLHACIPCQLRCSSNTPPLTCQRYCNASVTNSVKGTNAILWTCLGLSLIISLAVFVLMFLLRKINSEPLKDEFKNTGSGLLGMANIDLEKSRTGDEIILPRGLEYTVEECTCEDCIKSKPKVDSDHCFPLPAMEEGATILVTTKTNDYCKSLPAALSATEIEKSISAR
UniProt P25445, residues 26-335: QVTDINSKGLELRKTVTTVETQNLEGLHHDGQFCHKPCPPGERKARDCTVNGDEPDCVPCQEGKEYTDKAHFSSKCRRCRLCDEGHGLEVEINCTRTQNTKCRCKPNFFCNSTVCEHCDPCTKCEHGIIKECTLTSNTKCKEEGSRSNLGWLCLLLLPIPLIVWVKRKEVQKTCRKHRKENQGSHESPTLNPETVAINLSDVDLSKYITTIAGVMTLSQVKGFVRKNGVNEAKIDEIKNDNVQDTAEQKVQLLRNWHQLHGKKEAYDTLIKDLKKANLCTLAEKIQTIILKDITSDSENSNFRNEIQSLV
UniProt O00220, residues 24-468: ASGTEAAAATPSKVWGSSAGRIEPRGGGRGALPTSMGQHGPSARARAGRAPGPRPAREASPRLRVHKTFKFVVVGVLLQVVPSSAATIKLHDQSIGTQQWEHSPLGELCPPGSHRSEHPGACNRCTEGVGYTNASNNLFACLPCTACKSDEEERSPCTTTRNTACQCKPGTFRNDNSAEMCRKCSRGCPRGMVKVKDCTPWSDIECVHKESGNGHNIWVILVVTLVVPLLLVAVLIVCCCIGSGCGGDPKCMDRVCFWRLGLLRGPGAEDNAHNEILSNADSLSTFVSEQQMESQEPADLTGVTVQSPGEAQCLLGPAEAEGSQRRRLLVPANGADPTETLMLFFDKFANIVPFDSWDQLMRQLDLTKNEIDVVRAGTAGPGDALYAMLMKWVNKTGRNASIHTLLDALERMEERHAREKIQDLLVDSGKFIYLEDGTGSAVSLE

The target of test [1] is CD40 fused to ECFP or EYFP (UniProt P25942). The test can be described thus: FRET or BRET; flow cytometry FRET; HEK 293T cells transiently co-transfected with ECFP and EYFP fusion receptors, analysed 16-20 h post-transfection; percentage of FRET-positive cells gated with an ECFP-EYFP fusion protein (positive) and ECFP/EYFP co-transfection (negative); no ligand. On the technique in general: BRET reads energy transfer from a luciferase to a nearby fluorophore.

In test [2] the target is CD40, endogenous (human (endogenous in BJAB and primary human B cells)) (UniProt P25942). The test can be described thus: co-IP; native membrane fraction (ProteoExtract kit) of 1 x 10^7 TRAILR2-positive BJAB cells; agarose-conjugated anti-CD40 or protein A-loaded anti-Fas and anti-TRAILR2 antibodies; western blot; endogenous proteins.
Test [3] has the same target. The test can be described thus: proximity ligation; Duolink in situ PLA on fixed TRAILR2-negative BJAB cells; rabbit anti-CD40 with mouse anti-CD95 or mouse anti-DR5; spots per cell counted in the focal plane.
Test [4] has the same target. The test can be described thus: co-IP; native membrane fraction (ProteoExtract kit) of 1 x 10^7 TRAILR2-negative BJAB cells; agarose-conjugated anti-CD40 or protein A-loaded anti-Fas and anti-TRAILR2 antibodies; western blot; endogenous proteins.
For test [5] the target is unchanged. The test can be described thus: proximity ligation; Duolink in situ PLA on fixed primary human B cells, non stimulated, activated with PMA/ionomycin or with anti-BCR (anti-IgM/IgG) plus CD40L; three donors.
Test [6] has the same target. The test can be described thus: proximity ligation; Duolink in situ PLA on fixed TRAILR2-positive BJAB cells; rabbit anti-CD40 with mouse anti-CD95 or mouse anti-DR5; spots per cell counted in the focal plane.

These are yes or no findings as the source states them, for the method shown. Binding seen in cells or lysates may run through a third protein. Some results given as binding are weak or reduced against the parent protein; the word gives no strength. For part of these data: Tags and fused reporters may be left off the sequences shown.

As to “BAFFR fused to ECFP or EYFP (from UniProt Q96RJ3 1-184) (receptor)”, in test [1], the binding result was “no binding”. “BCMA fused to ECFP or EYFP (from UniProt Q02223 1-184) (receptor)”: the binding result in test [1] was “no binding”. With “ErbB1 fused to ECFP or EYFP (from UniProt P00533 25-1210) (receptor)”, in test [1], the binding entry is on record as “no binding”.

Take “ErbB2 fused to ECFP or EYFP (from UniProt P04626 23-1255) (receptor)”: the binding entry in test [1] was “no binding”. Same read-out and setting: the same measure for “Fas fused to ECFP or EYFP (from UniProt P25445 26-335) (receptor)”: “binds”. Take “Fas, endogenous (from UniProt P25445 26-335) (receptor)”: the binding entry in test [2] is on record as “no binding (condition: in TRAILR2-positive BJAB cells)”; in test [3] it was “binds”; in test [4] it was “binds”; in test [5], “binds”; in test [6] it was “no binding (condition: in TRAILR2-positive BJAB cells)”.

Consider “TRAIL receptor 1 fused to ECFP or EYFP (from UniProt O00220 24-468)”, for which the binding result in test [1] is reported as “no binding”.

B1: TACI fused to ECFP or EYFP (receptor, UniProt O14836 1-293)
chain: MSGLGRSRRGGRSRVDQEERFPQGLWTGVAMRSCPEEQYWDPLLGTCMSCKTICNHQSQRTCAAFCRSLSCRKEQGKFYDHLLRDCISCASICGQHPKQCAYFCENKLRSPVNLPPELRRQRSGEVENNSDNSGRYQGLEHRGSEASPALPGLKLSADQVALVYSTLGLCLCAVLCCFLVAVACFLKKRGDPCSCQPRSRPRQSPAKSSQDHAMEAGSPVSTSPEPVETCSFCFPECRAPTQESAVTPGTPDPTCAGRWGCHTRTTVLQPCPHIPDSGLGIVCVPAQEGGPGA
Consider B1, for which the binding result in test [1] is reported as “no binding”.
